Data: PubChem BioAssay AID1030 (National Center for Advancing Translational Sciences (NCATS), 2008)
In all, about 220,000 compounds went through this assay and about 16,000 (7.3%) were called active. This list was built around the results that the source calls inconclusive (neither active nor inactive); the mix of calls is not that of the screen. Calls follow the shape of the dose curve; as a rule, active = well fitted inhibition curve with a large enough effect (not every such curve was filed as active); inconclusive = small, poorly fitted or top-dose-only effect, or another doubt; inactive = no such curve, though single readings can be large or run the other way. No potency is given beside an inconclusive call; the fits are too rough.

molecular target: Aldehyde dehydrogenase 1A1 (Homo sapiens) (UniProt P00352); test: qHTS Assay for Inhibitors of Aldehyde Dehydrogenase 1 (ALDH1A1); conditions: Purified ALDH1A1, NADH fluorescence, propionaldehyde substrate; series mostly up to 75.3 µM
Potency is read from the fitted curve at half-maximal effect; tags tell the direction and shape of the fitted curve.

Sequence of UniProt P00352 (P00352 whole entry, looked up): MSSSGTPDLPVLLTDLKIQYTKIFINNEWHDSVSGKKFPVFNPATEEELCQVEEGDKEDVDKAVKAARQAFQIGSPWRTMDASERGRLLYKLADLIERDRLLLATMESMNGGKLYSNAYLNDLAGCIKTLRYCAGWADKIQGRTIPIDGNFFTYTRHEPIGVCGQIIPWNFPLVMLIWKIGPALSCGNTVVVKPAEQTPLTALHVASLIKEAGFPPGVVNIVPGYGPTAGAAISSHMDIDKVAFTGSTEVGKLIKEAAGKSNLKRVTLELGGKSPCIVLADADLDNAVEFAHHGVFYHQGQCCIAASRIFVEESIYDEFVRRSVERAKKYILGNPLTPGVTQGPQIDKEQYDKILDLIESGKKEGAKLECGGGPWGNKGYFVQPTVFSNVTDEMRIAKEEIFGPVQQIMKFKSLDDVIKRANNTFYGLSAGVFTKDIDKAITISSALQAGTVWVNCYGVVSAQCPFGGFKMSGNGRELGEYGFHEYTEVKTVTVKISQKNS

Row | SMILES | Potency
1 | C=C(C)COc1ccc(-c2n[nH]c(C)c2-c2ccc(Br)cc2)c(O)c1 | inconclusive [inhibitor, partial curve]
2 | Cc1ccc(NC(=S)Nc2ccc3cn[nH]c3c2)cc1 | inconclusive [inhibitor, single point]
3 | COc1ccc(N2CCN(Cc3ccc(Br)s3)CC2)cc1 | active: 25.1 µM
4 | O=C(CN1CCCC1)N1c2ccccc2Sc2ccccc21 | inconclusive [inhibitor, single point]
5 | COc1ccc(-c2cc(-c3ccc(OC)cc3)c(C#N)c(SC)n2)cc1 | inconclusive [inhibitor, single point]
6 | COc1ccc(/C=N/OCC(=O)N=Nc2c(O)[nH]c3ccc(Br)cc23)cc1 | inactive
7 | N#CC1=C(SCC(N)=O)NC2=C(C(=O)c3ccccc32)C1c1ccc(Cl)cc1 (stereo not drawn) | inconclusive [inhibitor, single point]
8 | COc1ccc(-c2nnc(SCC(=O)N3CCCC(C)C3)o2)c(OC)c1 (stereo not drawn) | inconclusive [inhibitor, single point]
9 | Oc1ccc(Nc2nc(-c3ccc4ccccc4c3)cs2)cc1 | inconclusive [inhibitor, single point]
10 | CCOC(=O)C1CCCN(CC(=O)Nc2cccc(C(C)=O)c2)C1 (stereo not drawn) | active: 10 µM
11 | O=C(Nc1nc2c(cc3c4c(cccc42)CC3)s1)c1ccccc1Cl | inconclusive [inhibitor, single point]
12 | COc1cc(OC)c(C2=Nc3ccc(Br)cc3C(c3ccccc3)N2CC(=O)NN)cc1OC (stereo not drawn) | inactive
13 | Cc1ccc(N2C(=S)N=C(Nc3ccccc3C)C23CCOC(C)(C)C3)cc1 (stereo not drawn) | inactive
14 | CCCn1c(N)c(C(=O)CSc2nc3ccccc3s2)c(=O)[nH]c1=O | inconclusive [inhibitor, full curve]
15 | CCN(C(=O)c1c(-c2ccccc2)noc1C)c1ccccc1 | inactive
16 | S=c1[nH]nc(COc2ccccc2)n1/N=C/c1ccc(Br)s1 | inconclusive [inhibitor, single point]
17 | Cc1cccc(NC(=O)Cc2cccs2)n1 | inconclusive [inhibitor, single point]
18 | COc1ccc(C(=O)NC(=S)Nc2ccc(Cl)c(C(=O)O)c2)cc1 | inconclusive [inhibitor, single point]
19 | CC(C)(C)Cc1nnc(NC(=O)c2ccc([N+](=O)[O-])cc2)s1 | inactive
20 | Cc1cc(/C=N/NC(=O)Cn2c3ccccc3c(=O)c3ccccc32)c(C)n1-c1ccccc1 | inconclusive [inhibitor, partial curve]
21 | O=C(CN1C(=O)NC2(CCCC2)C1=O)OCc1cc(=O)n2cc(Br)ccc2n1 | inconclusive [inhibitor, single point]
22 | CCOC(=O)c1cc2c(nc1NC(=S)NCc1ccccc1)CCCC2 | inconclusive [inhibitor, full curve]
23 | CCc1cc2c(C)cc(=O)oc2cc1OC(=O)C1CCCN1C(=O)OC(C)(C)C (stereo not drawn) | inconclusive [inhibitor, single point]
24 | Cc1nc(N2CCN(S(=O)(=O)c3cccc4nonc34)CC2)c2c3c(sc2n1)CCCC3 | inconclusive [inhibitor, single point]
25 | CCn1c(O)c(N=NC(=O)c2cccnc2)c2cc(Br)ccc21 | inconclusive [inhibitor, partial curve]

Row | SMILES | Potency
26 | CCCCC(=O)NC(=S)Nc1cccc(Cl)c1N1CCCCC1 | inconclusive [inhibitor, single point]
27 | CN(C)S(=O)(=O)c1cccc(NS(=O)(=O)c2ccc(Cl)s2)c1 | inconclusive [inhibitor, partial curve]
28 | CCOC(=O)C1(Cc2cccc(Cl)c2)CCCN(C(=O)c2cccnc2)C1 (stereo not drawn) | inactive
29 | Cc1ccc(N(CC(=O)NC(C)(C)C)C(=O)CS(=O)CC(=O)Nc2ccc(F)cc2)cc1 (stereo not drawn) | inactive
30 | Cc1ccc(S(=O)(=O)Nc2nc3c(s2)C(=O)CC(C)(C)C3)cc1 | active: 31.6 µM
31 | O=c1cc(N2CCc3ccccc3C2)[nH]c(=O)n1-c1ccccc1Cl | active: 6.31 µM
32 | CCCCN(CC)CCCNC(=O)c1cc2c(=O)n(C)c3ccccc3c2n1C | inconclusive [inhibitor, single point]
33 | CCc1nc2c(c(SC)nn2-c2ccccc2)c(N)c1C(=O)OC | inconclusive [inhibitor, partial curve]
34 | CCC1(CC)NC(=O)N(Cc2nc3ccccc3s2)C1=O | inactive
35 | COc1ccccc1N1CCN(C(=O)CN(C2CCCCC2)S(C)(=O)=O)CC1 | inactive
36 | CCCn1nc([N+](=O)[O-])c(C(C#N)c2nc3ccccc3o2)c(Cl)c1=O (stereo not drawn) | inconclusive [inhibitor, full curve, poor fit]
37 | Cc1cc2n(n1)C(c1ccccc1)Nc1ccccc1-2 (stereo not drawn) | inconclusive [inhibitor, partial curve]
38 | CSc1nc(SCC(=O)NCc2ccco2)c2c3c(sc2n1)COC(C)(C)C3 | inconclusive [inhibitor, partial curve]
39 | COc1ccc(OC)c(-n2c(-c3ccc(S(C)(=O)=O)cc3)cc(C=O)c2C)c1 | inconclusive [inhibitor, partial curve]
40 | CC(=O)Nc1cc(NC(C)=O)cc(-c2nc3ccccc3[nH]2)c1 | inconclusive [inhibitor, single point]
41 | COc1cc2c(cc1NC(=O)c1cccnc1)CCCC2 | active: 28.2 µM
42 | COc1cc2c(O)c3c(c(-c4ccc5c(c4)OCO5)c2cc1OC)C(=O)OC3 | inconclusive [inhibitor, single point]
43 | CN(CC(=O)Nc1ccc(S(=O)(=O)N2CCCC2)cc1)Cc1ccc(Cl)c(Cl)c1 | active: 20 µM
44 | CCC(C)(C)C(=O)Nc1cc([N+](=O)[O-])ccc1F | inconclusive [inhibitor, single point]
45 | Cc1ccc(-c2cc(-c3ccccc3)[nH]c(=S)c2C#N)cc1 | inconclusive [inhibitor, partial curve]
46 | O=C(CSc1ncc(-c2ccc(F)cc2)n1Cc1ccco1)Nc1ccc2c(c1)OCO2 | inactive
47 | c1ccc(CCCNc2ncnc3nc[nH]c23)cc1 | inactive
48 | N#Cc1c(NC(=O)CSc2ncn[nH]2)sc2c1CCCCC2 | inconclusive [inhibitor, single point]
49 | COc1ccc(CNC(=O)CN(c2ccccc2)S(=O)(=O)N(C)C)cc1 | inactive
50 | CCCN(CC1CC1)C(=O)CSc1ncnc2sc(C)c(C)c12 | inactive

Row | SMILES | Potency
51 | CCc1nnc(NC(=O)c2cccc(S(=O)(=O)N3CCc4ccccc43)c2)s1 | inactive
52 | O=C(CSCc1ccco1)c1ccc(Cl)s1 | inconclusive [inhibitor, single point]
53 | C=CCOc1ccc2c(c1)c(S(=O)(=O)c1ccc(C)cc1)cn2COC | inconclusive [inhibitor, partial curve, poor fit]
54 | Cc1ccccc1Cn1c(C(C)O)nc2ccccc21 (stereo not drawn) | inconclusive [inhibitor, single point]
55 | CCOCC(=O)Nc1ccc2c(c1)OCCO2 | inconclusive [inhibitor, single point]
56 | CCCOC(=O)c1ccc(NC(=O)COC)cc1 | inactive
57 | Cn1cc(CN2CCN(c3ccc(Cl)cn3)CC2)c(-c2ccccc2F)n1 | inconclusive [inhibitor, single point]
58 | O=c1c2ccccc2nc2n1CC/C2=C/N1CCN(c2cccc(C(F)(F)F)c2)CC1 | active: 3.98 µM
59 | Cc1[nH]c2ccccc2c1/C=C/c1cc[n+](C)cc1 | inconclusive [inhibitor, single point]
60 | Cc1cc(C(F)(F)F)n2nc(-c3cnn(C)c3C(F)(F)F)c(Br)c2n1 | inactive
61 | O=C(CCCn1c(=O)[nH]c2cc(Cl)ccc2c1=O)NCC1CCCO1 (stereo not drawn) | inactive
62 | Cc1ccc(-n2nc(-c3cccnc3)cc2C(=O)N2CCOCC2)c(C)c1 | inactive
63 | N#Cc1cccc(-c2ccc3ncnc(NCc4cccnc4)c3c2)c1 | inconclusive [inhibitor, single point]
64 | CCS(=O)(=O)NCCc1csc(C)n1 | inactive
65 | Cc1ccc2c(c1)-c1c(ssc1=S)C(C)(C)N2C(=O)CSc1nncn1C | inconclusive [inhibitor, single point]
66 | COc1ccc(CCN(C)C(=O)/C=C/c2c(Cl)nc3ccccn23)cc1OC | inconclusive [inhibitor, single point]
67 | CCc1cc(N2CCOCC2)cc2c1[nH]c1ccccc12 | inconclusive [inhibitor, partial curve]
68 | COc1ccc(CCCc2n[nH]c(=S)o2)cc1C | active: 8.91 µM
69 | OC(CNCCc1ccc(Cl)cc1)COCc1ccco1 (stereo not drawn) | inconclusive [inhibitor, single point]
70 | COc1ccc(C(=O)C[n+]2ccc(-c3nnc4n3CCC4)cc2)cc1 | inconclusive [inhibitor, single point]
71 | CC1(C)CC(=O)C(N=Nc2ccc(-c3ccccc3)cc2)=C(O)C1 | inconclusive [inhibitor, full curve]
72 | O=C(CCN1C(=O)C2C3C=CC(C3)C2C1=O)N1CCN(c2ccc([N+](=O)[O-])cc2)CC1 (stereo not drawn) | active: 6.31 µM
73 | CN(C)c1ccc(C(=S)N2CCOCC2)cc1Br | inconclusive [inhibitor, single point]
